Out of some 310,000 compounds screened, about 2,200 (0.71%) showed an effect of 50% or more. The effect is printed as a negative number. Some of the results follow. Where a SMILES comes first, the peptide text is derived from it. [ ]: non-standard residue; d: D form. The star is where a group is joined. ξ: configuration not given here. ξY = NC(Cc1ccc(O)cc1)C(=O)O; Cbz = O=C(OCc1ccccc1)*; Boc = CC(C)(C)OC(=O)*; OtBu = CC(C)(C)O*; tBu = CC(C)(C)*
molecular target: human ether-à-go-go-related gene (hERG) potassium channel (human, UniProt Q12809); assay: primary screen, population patch clamp on CHO cells stably expressing hERG
Sequence (Q12809 whole entry, looked up): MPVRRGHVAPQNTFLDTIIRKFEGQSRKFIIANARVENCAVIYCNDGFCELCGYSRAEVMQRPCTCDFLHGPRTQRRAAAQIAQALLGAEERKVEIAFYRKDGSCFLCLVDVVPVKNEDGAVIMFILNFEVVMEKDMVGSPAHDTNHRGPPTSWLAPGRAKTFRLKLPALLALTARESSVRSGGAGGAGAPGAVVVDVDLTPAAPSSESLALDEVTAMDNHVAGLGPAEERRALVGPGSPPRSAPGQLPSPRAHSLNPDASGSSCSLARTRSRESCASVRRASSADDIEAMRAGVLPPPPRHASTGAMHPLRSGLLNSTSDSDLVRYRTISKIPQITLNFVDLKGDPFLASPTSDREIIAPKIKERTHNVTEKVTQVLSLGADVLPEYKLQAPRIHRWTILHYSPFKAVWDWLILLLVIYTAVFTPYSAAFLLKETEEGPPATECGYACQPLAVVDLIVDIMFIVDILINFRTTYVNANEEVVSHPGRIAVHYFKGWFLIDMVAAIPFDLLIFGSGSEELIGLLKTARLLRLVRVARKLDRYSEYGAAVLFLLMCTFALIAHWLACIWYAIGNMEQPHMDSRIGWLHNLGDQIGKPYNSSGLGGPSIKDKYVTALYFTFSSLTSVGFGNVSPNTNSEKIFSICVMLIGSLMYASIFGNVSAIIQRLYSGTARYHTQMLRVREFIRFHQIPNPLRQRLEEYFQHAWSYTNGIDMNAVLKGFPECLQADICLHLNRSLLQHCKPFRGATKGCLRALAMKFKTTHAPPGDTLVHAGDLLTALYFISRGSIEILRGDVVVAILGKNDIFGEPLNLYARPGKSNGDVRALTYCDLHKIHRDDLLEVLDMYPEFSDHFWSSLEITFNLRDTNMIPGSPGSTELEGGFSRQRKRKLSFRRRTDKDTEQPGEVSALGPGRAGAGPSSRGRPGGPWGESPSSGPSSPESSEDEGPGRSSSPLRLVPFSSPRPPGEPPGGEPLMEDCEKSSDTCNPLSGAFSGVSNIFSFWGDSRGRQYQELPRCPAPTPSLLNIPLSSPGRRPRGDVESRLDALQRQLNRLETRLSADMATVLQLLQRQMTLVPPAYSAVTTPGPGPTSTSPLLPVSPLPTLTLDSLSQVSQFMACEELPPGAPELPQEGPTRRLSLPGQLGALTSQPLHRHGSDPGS

SMILES | hERG current change (%, negative = inhibition) at 1uM
CC(C)CNC(=S)NC1CC2CCCC(C1)N2C1CCCCC1 (centres unmarked) | 16%
CC(=O)Oc1ccc2ccc(=O)oc2c1 | 22.7%
COc1cc(C(=O)NCC(=O)OCC(=O)Nc2nnc(-c3ccccc3)o2)cc(OC)c1OC | 24.4%
CC(C)(C)OC(=O)N1CCCC1C(=O)NC(Cc1ccccc1)C(=O)O (stereo not drawn) (Boc-Pro-Phe-OH; configuration not given here) | 3.88%
O=C(c1ccc(COCC(F)(F)F)o1)N1CCCCCC1 | 11.9%
COc1c(F)cccc1C1=CC(=O)C[C@H](c2ccc3c(c2)OCO3)C1 | 20.5%
FC(F)Sc1ccc(NC(=S)NCc2ccccc2)cc1 | 0.835%
Cc1ccc(S(=O)(=O)N2CCC3(CC2)OCCN3S(=O)(=O)c2c(C)cc(C)cc2C)cc1 | 9.32%
CN(C)CCCN(C(=O)c1ccco1)c1nc2cc3c(cc2s1)OCO3.Cl | 3.45%
CCCCn1c(N)c(N(CC)C(=O)C2CCN(C(=O)c3ccccc3C)CC2)c(=O)[nH]c1=O | 5.2%
COCCn1c(COc2cccc(OC)c2)nnc1SCC(=O)NC1CCCC1 | 2.52%
O=C(CCc1nnc(CCc2c[nH]c3ccccc23)o1)NC1CCC1 | 8.49%
Cn1c(=O)c2c(ncn2CCO)n(C)c1=O | 19.2%
O=C(CNc1cc(S(=O)(=O)N2CCOCC2)ccc1NCC1CCCO1)Nc1ccc(F)c(F)c1 (centres unmarked) | 3.78%
O=C1C(C=NCc2ccccn2)=C(O)c2ccccc21 | 2.73%
Cc1cccc(N=C2NC(=O)S/C2=C\c2ccco2)c1 | 8.16%
COC(=O)c1ccccc1NC(=O)CSc1nnc(-c2cccnc2)n1C | -1.98%
C=CCCC(=O)Nc1nc(C)c(-c2csc(Nc3ccc(Cl)cc3)n2)s1 | 16.7%
O=[N+]([O-])c1ccc(N2CCNCC2)c(Cl)c1 | 7.65%
COc1ccc(Nc2cccc3ccccc23)cc1 | 16.4%
CSCCC(NS(=O)(=O)c1ccc2[nH]c(=O)c(=O)[nH]c2c1)C(=O)O (centres unmarked) | 5.83%
COC(C(=O)Nc1ccnn1C1CCN(Cc2ccccn2)CC1)c1ccccc1 (centres unmarked) | 18.1%
Cc1nc2scc(C)n2c(=O)c1S(=O)(=O)Nc1ccc(N2CCOCC2)c(Cl)c1 | 12.3%

SMILES | hERG current change (%, negative = inhibition) at 1uM
CCOc1ccc(CCNC(=O)CSc2n[nH]c(N)n2)cc1OCC | 13.5%
O=C(O)[C@H](Cc1ccccc1)NC(=O)N1CCOCC1 | 4.61%
COC(=O)C1CCN(C(=O)Cc2ccc(OC)c(OC)c2)CC1 | 1.78%
CC(C)OCP(=O)(c1ccccc1)c1ccccc1 | 6.74%
CSc1ccccc1OCc1cc(C(=O)N2CCSCC2)no1 | 12.1%
O=C(Nc1nc2ccc(Cl)cc2s1)C1CC1 | 18%
Cc1nnsc1C(=O)Nc1ccc(Cl)cc1 | -1.96%
COC(=O)C1CCN(C(=O)COC(=O)C2CCN(S(=O)(=O)c3ccc4c(c3)OCCO4)CC2)CC1 | 17.6%
COCCN(C(=O)COC(=O)CCC(=O)c1ccc(C)cc1)c1c(N)n(Cc2ccccc2)c(=O)[nH]c1=O | 7.35%
COc1ccc(S(=O)(=O)Oc2ccc3cccc(N)c3c2)cc1 | 12.7%
CCOc1cc(CN2CCOCC2)cc(C(C)=O)c1.Cl | 13.9%
Cc1c(Cl)cnc(NC(=O)COC(=O)c2nn(C)c(=O)c3ccccc23)c1Cl | 0.749%
CCN1C(=O)[C@H]2[C@@H](c3ccc(-c4ccc(Cl)c(Cl)c4)cc3)N[C@@](C)(C(=O)OC)[C@H]2C1=O.O=C(O)C(F)(F)F | 12.1%
CC(=O)Nc1ccc(OS(=O)(=O)c2ccccc2C)cc1 | 17.1%
Cc1cc(NC(=O)CCN2CC(C)OC(C)C2)ccc1Br.Cl (centres unmarked) | 4.54%
C=CCn1c(SCC(=O)c2c(N)n(C)c(=O)n(C)c2=O)nnc1-c1ccccc1F | 1.97%
C=CCOc1cccc(C(=O)N(C)C2CCCN(Cc3ccccc3F)C2)c1 (centres unmarked) | 5.69%
CC(C(=O)c1ccc(Cl)cc1Cl)n1cncn1.O=[N+]([O-])O (centres unmarked) | 9.38%
C[N+](C)=C1SCC(C)(/C=N/O)S1.[Br-] (centres unmarked) | 11.8%
O=S1(=O)N=C(N(CCO)/N=C/c2ccccc2F)c2ccccc21 | 10.2%
CCOC(=O)C1CCN(c2c(Nc3ccc(C)c(C)c3)c(=O)c2=O)CC1 | 4.46%
Cc1cc(C)c(C#N)c(SCC(=O)N2CCN(Cc3ccccc3)CC2)n1 | 4.4%
C=CCn1c(SCC(=O)Nc2ccc(Cl)cn2)nnc1C1CC1 | 1.93%

SMILES | hERG current change (%, negative = inhibition) at 1uM
Cc1c(Cc2ccccc2)c(=O)oc2cc(OCC(=O)N3CCC(C(N)=O)CC3)ccc12 | -3.02%
O=C(NC1CC1)c1cc(OCC(F)(F)F)ccc1OCC(F)(F)F | -4.1%
Cc1cc(=S)cc(C)n1CCO | 15.5%
N#Cc1cccnc1N1CCN(C(=O)c2ccccc2)CC1 | 11.8%
CC(C)c1nnc(NC(=O)c2cnccn2)s1 | 16%
COc1ccc(/C=N/NC(=O)C[n+]2ccccc2)c(OC)c1OC.[Cl-] | 5.43%
CCOC(=O)C1C(=O)NC(N2CCN(c3ccccc3)CC2)=NC1c1ccccc1 (centres unmarked) | 3.25%
CC(C)OC(=O)c1ccc(OC(=O)c2cccnc2)cc1 | 12.4%
CCC(C)NC(=O)CSc1nnc(-c2ccncc2)n1-c1ccc(OC)cc1 (centres unmarked) | 4.29%
N#Cc1sc2nc(C3CC3)cc(-c3ccc(Cl)cc3)c2c1N | 13.5%
CC(C)(C)OC(=O)C(Cc1ccc(OC(C)(C)C)cc1)NC(=O)CNC(=O)OCc1ccccc1 (stereo not drawn) (Cbz-Gly-[ξY](tBu)-OtBu) | -1.72%
Cc1cccc(N2C(S)=C(C#N)C(=O)NC23CCCCC3)c1 | 5.68%
Cc1nc2ccccc2n1CC(O)Cn1c2ccccc2c2ccccc21 (centres unmarked) | 3.19%
O=C(NC(=S)NCCc1ccccc1)c1ccccc1 | 6.16%
N#CC1=C(N)OC2=C(C(=O)CCC2)C1c1ccccc1 (centres unmarked) | -12.8%
COc1ccccc1NS(=O)(=O)c1cc(C(=O)N2CCCC2)ccc1C | 4.93%
O=c1[nH]ncn1-c1cccc(C(F)(F)F)c1 | 15.2%
Cc1cccc(Nc2ncc3c(n2)CC(c2ccco2)CC3=O)c1 (centres unmarked) | 8.27%
CC(C)(C)C(=O)N(Cc1ccc(Cl)cc1)Cc1cccnc1 | -1.25%
O=C(O)[C@H](Cc1ccccc1)NC(=O)N1CCCCCC1 | 7.99%
COc1ccc(NC(=O)c2ccc(S(=O)(=O)N3CCCC3)cc2)cc1OC | -102%
CN(C)C(=O)Oc1cccc2c(OC(=O)N(C)C)cccc12 | 8.06%
CC(C)(C)n1nc2c(c1NC(=O)c1ccc(Cl)c([N+](=O)[O-])c1)CS(=O)(=O)C2 | 6%

SMILES | hERG current change (%, negative = inhibition) at 1uM
Cc1ccc(OCC(=O)Nc2cc(NC(=O)COc3ccc(C)cc3)cc(C(=O)O)c2)cc1 | 19.7%
CC(C)(C)N=C1SCC(C)(/C=N/O)S1 (centres unmarked) | 9.57%
CCC(=NCc1ccco1)c1c(O)n(C)c(=O)n(C)c1=O | 13.8%
O=C(COC(=O)c1ccccc1C(=O)c1ccc(Cl)c([N+](=O)[O-])c1)NC1CC1 | 5.78%
Cc1cccc(Nc2nc(N)nc(CN3CCN(c4ccccc4)CC3)n2)c1 | -7.51%
CC(=O)C1=C(C)NC(=O)NC1c1ccc(OC2CCCC2)cc1 (centres unmarked) | 2.8%
CCc1c(O)nc(SCc2ccc(F)cc2)[nH]c1=O | 11.8%
CN(C)c1ccc(C(C(=O)NC2CCCC2)N(C(=O)c2csnn2)C2CC2)cc1 (centres unmarked) | 6.93%
CCOC(=O)C1(S(=O)(=O)c2ccc(Cl)cc2)CCN(Cc2ccc(C)cc2)CC1 | 12.6%
CCCCn1c(N)c(N(CCOC)C(=O)C2CCN(C(=O)c3ccc(Cl)cc3)CC2)c(=O)[nH]c1=O | 5.05%
C=CCn1c(C)cc(C(=O)CSc2nnc(-c3cccc(S(=O)(=O)N(CC)CC)c3)o2)c1C | 3%
CN(CC(=O)Nc1ccc2c(c1)OCCO2)S(=O)(=O)c1cccc2cccnc12 | 11.6%
O=C(CN(Cc1ccccc1)S(=O)(=O)c1ccccc1)N/N=C/c1ccccc1C(=O)O | 10.6%
COCC1CCN(C(=O)C2CCN(c3nc(-c4ccccc4)nc4c3CCC4)CC2)C1 (centres unmarked) | -30.6%
CCCOc1cc2c(C#N)c(N3CCCC3)nc(N)c2c(N)n1 | 15.8%
CC(C)NC(=O)c1ccc(OC2CSC2)cc1 | -0.511%
Cc1ccc(NC(=O)Nc2cc(S(C)(=O)=O)ccc2Cl)cc1 | 4.51%
COc1ccc(CC(=O)Nc2ccc(N3CCCC3)c(C)c2)cc1 | 5.59%
O=C(OCC(=O)c1ccc[nH]1)C1=COCCO1 | 9.49%
CCC(CC)c1nnc(NC(=O)C2CC(=O)N(CCc3ccc(OC)c(OC)c3)C2)s1 (centres unmarked) | 14%

Reference: publication PMC4336329 (PLoS ONE, 2015)
